Among all 150,000 compounds or so, about 540 (0.36%) showed an effect of 50% or more. Some of the results follow.
Test system: Plasmodium falciparum
Test: Primary screen in NF54 nanoGlo assay, in single point, at 2uM, 72h; a lower Z score goes with more inhibition
Type: functional, Erythrocyte
Conditions: timepoint 72 hour

Question: Which results are given for O=C(NCc1ccccc1)c1ccccc1OC1CN(C2CCC2)C1?
Answer: % Inhibition: -5%; Z score: 0.92

Question: With O=C(Nc1ccc(F)c(F)c1)c1ccc(S(=O)(=O)c2ccc(Cl)cc2)s1 as the compound, how does the “% Inhibition” value read?
Answer: -21%

Question: And the Z score?
Answer: 1.98

Question: For C[C@@H](C(=O)N(C)CC1(O)CCC1)n1cnc2c(N)ncnc21, which “% Inhibition” value is on record?
Answer: -12%

Question: And the Z score?
Answer: 1.57

Question: Which results are given for Cc1ccc(-n2cc(NC(=O)N3CC[C@H](N)[C@@H]3C)cn2)c(C)c1?
Answer: % Inhibition: -9%; Z score: 1.65

Question: With Cc1cc2c(cc1C(=O)NCc1nc(-c3cnccn3)n[nH]1)OCCO2 as the compound, how does the “% Inhibition” value read?
Answer: 12%

Question: And the Z score?
Answer: -1.49

Question: With O=C(N[C@H]1CCc2nccn2C1)c1ccnc(C2CC2)n1 as the compound, how does the “% Inhibition” value read?
Answer: -8%

Question: And the Z score?
Answer: 1.67

Question: COc1ccc(CN2CCNC(=O)[C@@H]2CC(=O)N2CCOCC2)c(C)c1C was tested. Which “% Inhibition” value did it give?
Answer: 4%

Question: And the Z score?
Answer: -0.47

Question: Which “% Inhibition” value does the source give for COc1ccc2c(c1)C(N1CCN(S(=O)(=O)c3ccccc3C)CC1)=Nc1ccc(C)cc1O2 here?
Answer: 0%

Question: What about the Z score of the same compound?
Answer: -0.07

Question: With FC1(F)CC(Nc2ccnc(C3CC3)n2)C1 as the compound, how does the “% Inhibition” value read?
Answer: -7%

Question: And the Z score?
Answer: 1.36

Question: How did the “% Inhibition” value turn out when Cc1ccc2cc(CN(C(=O)C3CCCCC3)C(C)(C)C)c(O)nc2c1 was run?
Answer: -1%

Question: What about the Z score of the same compound?
Answer: 0.07

Question: Which results are given for COc1ccc(CNS(=O)(=O)C[C@H]2CCOC2)cc1OC?
Answer: % Inhibition: -13%; Z score: 1.49

Question: With CCCc1ccc(CN2CC[C@H](NC(=O)c3cc(C)on3)[C@@H](O)C2)o1 as the compound, how does the “% Inhibition” value read?
Answer: -10%

Question: And the Z score?
Answer: 1.24

Question: What does the source list for Cc1cccc(NC(=O)CN2CCN(C(=O)c3cocn3)CC2)c1C?
Answer: % Inhibition: 30%; Z score: -3.34

Question: Which “% Inhibition” value does the source give for Cc1nsc(N[C@@H]2C=C[C@H](CO)C2)n1 here?
Answer: 34%

Question: And the Z score?
Answer: -0.65

Question: CC(C)(C)[C@@H](O)CCNC(=O)Cc1cccs1 was tested. Which “% Inhibition” value did it give?
Answer: -4%

Question: What about the Z score of the same compound?
Answer: 0.57

Question: c1ccc(CCN2CCC[C@@]3(CCN(c4cnccn4)C3)C2)cc1 was tested. Which “% Inhibition” value did it give?
Answer: -9%

Question: What about the Z score of the same compound?
Answer: 1.14

Question: Which results are given for COc1ccc(-c2noc(-c3ccc(=O)n(CC(=O)Nc4ccc(C)c(Cl)c4)c3)n2)cc1?
Answer: % Inhibition: -7%; Z score: 1.05

Question: NS(=O)(=O)c1ccc(-n2nc(CC3CC3)nc2Cc2cccnc2)cc1 was tested. Which “% Inhibition” value did it give?
Answer: -5%

Question: And the Z score?
Answer: 0.91

Question: CCCCc1nn(CC(=O)N2CCC[C@H](O)C2)c(=O)n1Cc1ccccc1 was tested. Which “% Inhibition” value did it give?
Answer: -4%

Question: What about the Z score of the same compound?
Answer: 0.79

Question: With Cc1ccc(Cc2ccccc2C(=O)N[C@H]2COCC[C@@H]2O)cc1 as the compound, how does the “% Inhibition” value read?
Answer: -5%

Question: What about the Z score of the same compound?
Answer: 1.06

Question: With CCn1ncc(CNc2nc(-c3cnn(CC)c3C)cc(C(F)F)n2)c1C as the compound, how does the “% Inhibition” value read?
Answer: 30%

Question: What about the Z score of the same compound?
Answer: -3.4

Question: Which “% Inhibition” value does the source give for C[C@H]1C(=O)N[C@@H](Cc2ccccc2)C(=O)NCCN(Cc2ccncc2)CC(=O)N[C@@H](Cc2c[nH]c3ccccc23)C(=O)N1C here?
Answer: -14%

Question: What about the Z score of the same compound?
Answer: 2.64

Question: Which “% Inhibition” value does the source give for Cn1ccnc1CC[C@H]1CCCCN1Cc1ccc(-c2cc[nH]n2)o1 here?
Answer: -4%

Question: And the Z score?
Answer: 0.67

Question: Which “% Inhibition” value does the source give for COc1ccc(CC(=O)N2C[C@H]3CC[C@@H](C2)N(Cc2ccccc2)C3=O)cc1 here?
Answer: 8%

Question: What about the Z score of the same compound?
Answer: -1.12

Question: With CCCc1cc(C(=O)N2CCO[C@H](c3ccccc3)C2)[nH]n1 as the compound, how does the “% Inhibition” value read?
Answer: -8%

Question: And the Z score?
Answer: 1.39

Question: What does the source list for CC(C)c1nsc(CN2CC[C@H](NC(=O)c3ccccc3)C2)n1?
Answer: % Inhibition: -8%; Z score: 1.26

Question: Which “% Inhibition” value does the source give for CC(=O)N1CCN(Cc2ccccc2NC(=O)c2oc(CC(C)C)nc2C)CC1 here?
Answer: -2%

Question: And the Z score?
Answer: 0.27

Question: What does the source list for CC1CCN(C(=O)c2cccc(NC(=O)CC3CCCC3)c2)CC1?
Answer: % Inhibition: -14%; Z score: 1.98

Question: With COc1ccc(NC(=O)Cn2cc(C(=O)c3ccncc3)c(=O)c3cc(Br)ccc32)cc1 as the compound, how does the “% Inhibition” value read?
Answer: -4%

Question: What about the Z score of the same compound?
Answer: 0.64

Question: Which “% Inhibition” value does the source give for Cc1c(Br)c(C(=O)N[C@@H]2CCCOC2)nn1C here?
Answer: -3%

Question: And the Z score?
Answer: 0.34

Question: For FC(F)(F)c1nnc(NCc2ccc3c(c2)OCCO3)s1, which “% Inhibition” value is on record?
Answer: -3%

Question: And the Z score?
Answer: 0.3

Question: Which results are given for O=C(CN1CCCC[C@@H]1Cn1cncn1)Nc1nncs1?
Answer: % Inhibition: -3%; Z score: 0.5

Question: For CCCCN(CC)c1ncc(S(=O)(=O)c2cccc(C)c2)c(N)n1, which “% Inhibition” value is on record?
Answer: 34%

Question: And the Z score?
Answer: -3.86

Question: Which “% Inhibition” value does the source give for CC(C)CN1CC2(CCN(C(=O)C(=O)c3ccco3)CC2)CC1=O here?
Answer: -5%

Question: What about the Z score of the same compound?
Answer: 0.88

Question: How did the “% Inhibition” value turn out when COc1ccc2nc(C(=O)N3CCN(C4CCCCC4)CC3)cn2n1 was run?
Answer: -5%

Question: What about the Z score of the same compound?
Answer: 0.78

Question: Which results are given for CC12CN(C(=O)c3ccccc3)C3(C#N)CC1CCC23C (stereo not drawn)?
Answer: % Inhibition: 4%; Z score: -0.57

Question: How did the “% Inhibition” value turn out when COCCOCC(=O)N1CC[C@](C)(O)[C@H](Cc2ccccc2)C1 was run?
Answer: 2%

Question: And the Z score?
Answer: -0.47

Question: Which “% Inhibition” value does the source give for OC1CCCC1Nc1cncc(Br)c1 (stereo not drawn) here?
Answer: -4%

Question: What about the Z score of the same compound?
Answer: 0.44

Question: For Cn1cc(C(=O)NC2CCN(Cc3nnc(C(C)(C)C)o3)CC2)cn1, which “% Inhibition” value is on record?
Answer: -6%

Question: And the Z score?
Answer: 1

Question: What does the source list for Cc1nnc2ccc(NC3CCCC3C(N)=O)nn12 (stereo not drawn)?
Answer: % Inhibition: -9%; Z score: 1.1

Question: Which results are given for CCCn1cc(-c2ccnc(NC3CC(C)(C)NC(C)(C)C3)n2)c(C)n1?
Answer: % Inhibition: 27%; Z score: -2.57

Question: For Cc1ccccc1N1CCN(C(=O)c2c(C)cc(C)n2Cc2ccc(F)cc2)CC1, which “% Inhibition” value is on record?
Answer: -9%

Question: And the Z score?
Answer: 0.89

Question: With CNc1cc([C@H]2C[C@@H](NS(=O)(=O)CCOc3ccccc3F)C2)ncn1 as the compound, how does the “% Inhibition” value read?
Answer: 0%

Question: And the Z score?
Answer: -0.08

Question: Which results are given for CC1(C(=O)N2CCCC3CCCC32)CCCC1 (stereo not drawn)?
Answer: % Inhibition: -8%; Z score: 1.21

Question: How did the “% Inhibition” value turn out when CCC(C)C1CN(Cc2ccc(C)nc2)CCN1C(=O)C(C)N (stereo not drawn) was run?
Answer: -4%

Question: And the Z score?
Answer: 0.37

Question: With O=C(O)C1(C(=O)NCC2CCN(Cc3ccncc3)CC2)CCCCCC1 as the compound, how does the “% Inhibition” value read?
Answer: 13%

Question: What about the Z score of the same compound?
Answer: -1.6

Question: For N#Cc1cc(N[C@H]2CCCC[C@H]2CCO)ccn1, which “% Inhibition” value is on record?
Answer: -6%

Question: What about the Z score of the same compound?
Answer: 1.19

Question: What does the source list for O=C(NCc1ccccn1)c1ccnc(OCC2CC2)c1?
Answer: % Inhibition: -10%; Z score: 1.94

Question: Which “% Inhibition” value does the source give for CCc1ccc(CNc2nc3[nH]c(CNc4cccc(Cl)c4)cc(=O)n3n2)cc1 here?
Answer: -3%

Question: What about the Z score of the same compound?
Answer: 0.53

Question: C=CCCN[C@@](C)(C(N)=O)c1cccc(Cl)c1 was tested. Which “% Inhibition” value did it give?
Answer: -8%

Question: What about the Z score of the same compound?
Answer: 1.22

Question: How did the “% Inhibition” value turn out when Oc1cc(-c2nc3ccccc3s2)cc2c1OCCNC2 was run?
Answer: 3%

Question: And the Z score?
Answer: -0.57

Question: With Cc1cnc(N2CC3(CCOCC3)C[C@@H]2C)s1 as the compound, how does the “% Inhibition” value read?
Answer: -7%

Question: What about the Z score of the same compound?
Answer: 1.3

Question: Which “% Inhibition” value does the source give for C[C@@H](C(=O)Nc1ncc[nH]1)c1ccc2c(c1)[nH]c1ccc(Cl)cc12 here?
Answer: 69%

Question: And the Z score?
Answer: -1.75

Question: How did the “% Inhibition” value turn out when CN(C)C(=O)c1ccnc(NC(=O)c2cc(C3CCCCC3)n[nH]2)c1 was run?
Answer: 8%

Question: What about the Z score of the same compound?
Answer: -0.85
